PubChem BioAssay (Tox21)
Several values for one entry are separate records, joined by “and”; a condition that tells them apart may be missing. Equal values may be shown once. Inconclusive means that the source gave no clear call. Such entries were picked first, then a sample of the others. Where the call is inconclusive, the potency comes from a doubtful curve fit. Activity calls are given as the source filed them. Unless noted, the call rests on the fitted dose curve; in most records, active means well fitted curve in the direction sought with a large enough effect in the repeat runs; inconclusive means weak or mixed curves; inactive means no such curve, though single readings can be large; an effect the other way counts as inactive or inconclusive.

Columns and labels:
[1] = molecular target: Bile acid receptor (Homo sapiens) (UniProt Q96RI1); test: qHTS assay to identify small molecule antagonists of the farnesoid-X-receptor (FXR) signaling pathway (AID 743217; active means well fitted inhibition curve with a large enough effect in the signal ratio in the repeat runs, not every such curve was filed as active; inconclusive means weak or mixed curves, or effect the other way; inactive means no such curve, though single readings can be large or run the other way; the % refers to the signal ratio); details: HEK293T FXR-UAS-bla, beta-lactamase ratio, CDCA-stimulated, 16 h; activity change, negative = inhibition: at 62.6 µM (top of the series) unless noted
Chain of UniProt Q96RI1 (Q96RI1 whole entry, looked up): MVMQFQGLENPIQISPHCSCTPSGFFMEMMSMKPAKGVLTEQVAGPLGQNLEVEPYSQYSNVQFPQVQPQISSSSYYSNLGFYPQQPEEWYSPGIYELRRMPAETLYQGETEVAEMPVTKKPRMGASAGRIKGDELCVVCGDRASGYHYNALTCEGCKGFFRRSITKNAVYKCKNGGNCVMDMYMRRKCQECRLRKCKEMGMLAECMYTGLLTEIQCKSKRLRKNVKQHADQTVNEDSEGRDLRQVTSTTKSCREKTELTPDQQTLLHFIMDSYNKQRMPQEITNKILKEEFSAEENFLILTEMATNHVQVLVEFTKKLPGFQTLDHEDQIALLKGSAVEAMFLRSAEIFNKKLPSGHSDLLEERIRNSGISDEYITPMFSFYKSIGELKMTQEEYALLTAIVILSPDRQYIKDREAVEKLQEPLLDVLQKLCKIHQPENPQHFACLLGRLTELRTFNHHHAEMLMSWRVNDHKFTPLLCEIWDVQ
Procedure, shortened: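 Read-out: beta-lactamase FRET fluorescence (LiveBLAzer B/G substrate, 2 h, room temperature) in GeneBLAzer FXR-UAS-bla HEK 293T cells. Compounds were co-dosed with 50 uM chenodeoxycholic acid (final) and incubated 16 h at 37 °C.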

[2] = qHTS assay to identify small molecule agonists of the farnesoid-X-receptor (FXR) signaling pathway - cell viability counter screen (AID 743218); details: FXR-bla HEK293T viability, CellTiter-Glo luminescence, 16 h; viability change, negative = cytotoxic: at 62.6 µM (top of the series) unless noted; further: nearly all actives have a fitted effect of over 45% in size
Procedure, shortened: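 Luminescence from CellTiter-Glo, read after 30 min at RT, reports viability of GeneBLAzer FXR-UAS-bla HEK 293T cells treated 16 h with compounds in the wells used for the beta-lactamase reporter.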

[3] = qHTS assay to identify small molecule agonists of the vitamin D receptor (VDR) signaling pathway - cell viability counter screen (AID 743224); details: VDR-bla HEK293T viability, CellTiter-Glo luminescence, 16 h; activity change, negative = cytotoxicity: at 62.6 µM (top of the series); further: nearly all actives have a fitted effect of over 50% in size
Procedure, shortened: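 Cytotoxicity counter screen: VDR-bla cells, 16 h compound exposure at 37C, 5% CO2; CellTiter-Glo luminescence, 30 min RT, same wells as bla read.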

[4] = qHTS assay to identify small molecule antagonists of the retinoid-related orphan receptor gamma (ROR-gamma) signaling pathway - cell viability counter screen (AID 1159520); further: nearly all actives have a fitted effect of over 50% in size
Procedure, shortened: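 Tet-on ROR gamma CHO cells were given compounds for 2 hr, then doxycycline hyclate at 1 uM final, and incubated 16 hr at 37 C. Viability was measured as ATP content by CellTiter-Glo luminescence.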

[5] = molecular target: Nuclear receptor ROR-gamma (Homo sapiens) (UniProt P51449); test: qHTS assay to identify small molecule antagonists of the retinoid-related orphan receptor gamma (ROR-gamma) signaling pathway (AID 1159521; further: nearly all actives have a fitted effect of over 50% in size)
Procedure, shortened: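 Screening format: cell-based luciferase reporter in CHO cells with doxycycline-inducible RORγ. Compound pre-exposure lasts 2 h, doxycycline is 1 uM final, induction runs 16 h at 37 C, and ONE-Glo luminescence is read.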

[6] = qHTS assay to identify small molecule agonists of the AP-1 signaling pathway (AID 1159526; calls by dose curve; on activation: on the % scale 0 is the no-effect control and ±100 the full control effect); details: ME-180 (cervical carcinoma) AP-1-bla reporter, beta-lactamase FRET ratio, 5 h; activation: at 76.8 µM (top of the series) unless noted
[7] = molecular target: Retinoic acid receptor RXR-alpha (Homo sapiens) (UniProt P19793); test: qHTS assay to identify small molecule agonists of the RXR signaling pathway (AID 1159527; calls by dose curve; further: nearly all actives have a fitted effect of over 35% in size; on activation: on the % scale 0 is the no-effect control and ±100 the full control effect); details: HEK293T RXRa-UAS-bla, beta-lactamase ratio, 16 h; activation: at 76.8 µM (top of the series) unless noted
Chain of UniProt P19793 (P19793 whole entry, looked up): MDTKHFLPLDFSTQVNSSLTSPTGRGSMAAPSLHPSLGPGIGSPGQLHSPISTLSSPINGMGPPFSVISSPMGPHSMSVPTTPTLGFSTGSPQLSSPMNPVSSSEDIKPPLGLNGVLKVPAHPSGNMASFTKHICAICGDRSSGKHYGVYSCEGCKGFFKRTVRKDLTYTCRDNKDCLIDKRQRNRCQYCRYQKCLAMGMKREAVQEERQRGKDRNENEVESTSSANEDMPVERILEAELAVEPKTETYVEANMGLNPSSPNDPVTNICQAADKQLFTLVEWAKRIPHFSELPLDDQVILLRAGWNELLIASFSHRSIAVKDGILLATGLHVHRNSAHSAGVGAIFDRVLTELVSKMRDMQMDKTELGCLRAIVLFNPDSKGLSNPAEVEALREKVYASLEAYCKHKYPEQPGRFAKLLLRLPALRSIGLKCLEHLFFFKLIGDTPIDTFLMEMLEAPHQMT
Procedure, shortened: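 Fluorescence ratio readout (460 vs 530 nm) from GeneBLAzer RXR-alpha HEK 293T cells after 16 hr compound treatment; cells seeded 5 hr beforehand in low-serum, charcoal-stripped medium.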

[8] = qHTS assay to identify small molecule agonists of the RXR signaling pathway - cell viability counter screen (AID 1159529); further: nearly all actives have a fitted effect of over 50% in size;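 on activity change, negative = cytotoxicity: HEK 293T cells carrying an RXR-alpha UAS beta-lactamase reporter; on the % scale 0 is the no-effect control and ±100 the full control effect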
Procedure, shortened: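 Viability read-out for the RXR-alpha agonist qHTS: luminescent CellTiter-Glo signal after 30 min at RT. HEK 293T bla reporter cells, 2% charcoal-stripped FBS, 16 hr compound incubation; tetraoctyl ammonium bromide as cytotoxic control.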

[9] = qHTS assay to identify small molecule antagonists of the retinoid acid receptor (RAR) signaling pathway - cell viability counter screen (AID 1159551); further: nearly all actives have a fitted effect of over 35% in size
Procedure, shortened: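 C3RL4 RARE-luciferase line; cpds + retinol 1 uM final, 6 h, 37 C/5% CO2; CellTiter-Glo ATP luminescence, 30 min RT.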

[10] = qHTS assay to identify small molecule agonists of the AP-1 signaling pathway - cell viability counter screen (AID 1159525; calls by dose curve; further: nearly all actives have a fitted effect of over 55% in size)
Procedure, shortened: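 Same-well cytotoxicity counter screen of the Tox21 10K library in ME-180 cells. The readout is ATP-dependent luminescence after 5 h compound treatment. Data are normalised to DMSO and tetra n-octyl ammonium bromide controls.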

[11] = qHTS assay to identify small molecule antagonists of the peroxisome proliferator-activated receptor delta (PPARd) signaling pathway - cell viability counter screen (AID 743213); details: PPARd-bla HEK293H viability, CellTiter-Glo luminescence, 17 h; viability change, negative = cytotoxic: at 62 µM (top of the series) unless noted; further: nearly all actives have a fitted effect of over 50% in size
Procedure, shortened: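 HEK293H cells with the PPARd UAS-bla reporter, co-treated 17 h at 37 C with compounds and L165041 (300 nM final), were lysed with CellTiter-Glo. Luminescence indicated viable cell content.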
Potency means the concentration at half of the fitted maximal effect; tags describe the fitted curve by direction and shape or compound fluorescence and quenching.

SMILES	Potency [1]	Potency [2]	Potency [3]	Potency [4]	Potency [5]	Potency [6]	activation [7]	Potency [8]	Potency [9]	Potency [10]	Potency [11]	activation [6]	Potency [7]
C(=C\c1ccccc1)/CN1CCN(C(c2ccccc2)c2ccccc2)CC1	inconclusive: 29.8 µM [inhibitor, partial curve]	inconclusive: 9.44 µM [rising, partial curve, poor fit]	inconclusive: 33.5 µM [cytotoxic, single point]	inconclusive: 26.6 µM [cytotoxic, partial curve, poor fit]	inconclusive: 26.6 µM [inhibitor, partial curve, poor fit]	inconclusive: 9.52 µM	inconclusive: -26.1% [at 35.3 µM]	inconclusive: 19 µM [cytotoxic, partial curve]	inconclusive: 33.5 µM [cytotoxic, single point]				
NC(=O)Nc1ccc(Cl)c(Cl)c1				inconclusive: 24.3 µM [cytotoxic, partial curve, poor fit]	inconclusive: 2.43 µM [inhibitor, full curve, poor fit]		inconclusive: 1.39%			inconclusive: 61.5 µM [rising, partial curve, poor fit]			
CC(C)[C@@H]1CC[C@@H](C)CC1=O				inactive	inconclusive: 68.6 µM [inhibitor, single point] and inconclusive: 298 nM [inhibitor, single point]			inconclusive: 49 µM [cytotoxic, partial curve, poor fit] and inactive		inconclusive: 26.8 µM [cytotoxic, partial curve, poor fit]	inconclusive: 0.596 µM [cytotoxic, full curve, poor fit]	inconclusive: 29.9%	inconclusive: 61.6 µM [rising, partial curve, poor fit]
